Laboratory results as given in EPA's CvTdb concentration-time database.
This continues a long series; more values of the same kind are listed elsewhere.

Legend:
Rat [1] = test: concentration in plasma after dosing; settings: 4 min; dosed: 2-Methyltetrahydrofuran; 30 mg/kg; oral; Male; F344
Rat [2] = test: concentration in brain after dosing; settings: 4 h; dosed: 2-Methyltetrahydrofuran; 100 mg/kg; oral; Female; Harlan Sprague Dawley
Rat [3] = test: concentration in plasma after dosing; settings: dosed: 2-Methyltetrahydrofuran
Rat [4] = test: concentration in plasma after dosing; settings: 1.5 h; dosed: 2-Methyltetrahydrofuran; 400 mg/kg; oral; Female; Harlan Sprague Dawley
Rat [5] = test: concentration in plasma after dosing; settings: 2 h; dosed: 2-Methyltetrahydrofuran; 30 mg/kg; oral; Male; F344
Rat [6] = test: concentration in plasma after dosing; settings: 1.5 h; dosed: 2-Methyltetrahydrofuran; 10 mg/kg; iv; Female; F344
Rat [7] = test: concentration in plasma after dosing; settings: 20 min; dosed: 2-Methyltetrahydrofuran; 400 mg/kg; oral; Male; F344
Rat [8] = test: concentration in plasma after dosing; settings: 12 h; dosed: 2-Methyltetrahydrofuran; 400 mg/kg; oral; Male; F344

CC1CCCO1 (configuration not stated) [2-Methyltetrahydrofuran]
Settings	concentration in brain [µg/g]	concentration in plasma [µg/mL]
Rat [1]	–	6.38
Rat [2]	16.9	–
Rat [4]	–	157
Rat [5]	–	4.11
Rat [6]	–	0.423
Rat [7]	–	162
Rat [8]	–	0.314

concentration in plasma [µg/mL], Rat [3]
Settings	Female	Male
0.25 h, 10 mg/kg, iv, F344	6.63	7.42
0.25 h, 10 mg/kg, oral, F344	3.48	6.01
0.25 h, 30 mg/kg, oral, F344	16.5	18.8
0.5 h, 10 mg/kg, iv, F344	3.7	5.18
0.5 h, 10 mg/kg, oral, F344	2.08	4.2
0.5 h, 30 mg/kg, oral, F344	17.5	14.7
0.75 h, 10 mg/kg, oral, F344	2.84	2.09
0.75 h, 30 mg/kg, oral, F344	15.1	17.1
0.75 h, 100 mg/kg, oral, F344	40.3	–
0.75 h, 100 mg/kg, oral, Harlan Sprague Dawley	39.9	38.5
0.75 h, 400 mg/kg, oral, F344	177	197
0.75 h, 400 mg/kg, oral, Harlan Sprague Dawley	199	–
1 h, 10 mg/kg, iv, F344	1.71	1.95
1 h, 10 mg/kg, oral, F344	0.799	0.941
1 h, 30 mg/kg, oral, F344	13.1	15
1.5 h, 10 mg/kg, iv, F344	0.286	0.932
1.5 h, 10 mg/kg, oral, F344	0.388	0.565
1.5 h, 30 mg/kg, oral, F344	8.65	11.5
1.5 h, 100 mg/kg, oral, Harlan Sprague Dawley	42.5	38.3
1.5 h, 400 mg/kg, oral, F344	202	156
1.5 h, 400 mg/kg, oral, Harlan Sprague Dawley	158	–
2 h, 10 mg/kg, iv, F344	0.191	0.282
2 h, 10 mg/kg, oral, F344	11.6	0.106
2 h, 30 mg/kg, oral, F344	4.88	4.58
2 min, 10 mg/kg, iv, F344	16	15.7
2 min, 10 mg/kg, oral, F344	1.17	0.118
2 min, 30 mg/kg, oral, F344	5.8	0.453
2.5 h, 10 mg/kg, oral, F344	0.0379	0.0558
3 h, 10 mg/kg, iv, F344	0.0571	0.046
3 h, 30 mg/kg, oral, F344	0.548	0.576
4 h, 100 mg/kg, oral, Harlan Sprague Dawley	19.6	8.75
4 h, 400 mg/kg, oral, F344	147	139
4 h, 400 mg/kg, oral, Harlan Sprague Dawley	165	–
4 min, 10 mg/kg, oral, F344	4.14	1.47
4 min, 30 mg/kg, oral, F344	8.77	5.22
5 min, 10 mg/kg, iv, F344	11	13.8
5 min, 100 mg/kg, oral, F344	44	66.2
5 min, 100 mg/kg, oral, Harlan Sprague Dawley	23	34.7
5 min, 400 mg/kg, oral, F344	268	259
5 min, 400 mg/kg, oral, Harlan Sprague Dawley	245	–
6 h, 100 mg/kg, oral, Harlan Sprague Dawley	7.49	0.548
6 h, 400 mg/kg, oral, F344	66.5	92.9
6 h, 400 mg/kg, oral, Harlan Sprague Dawley	83.3	–
8 h, 100 mg/kg, oral, F344	–	0.0217
8 h, 100 mg/kg, oral, Harlan Sprague Dawley	0.447	0.0488
8 h, 400 mg/kg, oral, F344	–	52.2
8 h, 400 mg/kg, oral, Harlan Sprague Dawley	57.7	–
8 min, 10 mg/kg, oral, F344	2.95	5.59
8 min, 30 mg/kg, oral, F344	13.2	17.6
10 min, 10 mg/kg, iv, F344	9.27	12.1
10 min, 10 mg/kg, oral, F344	4.15	4.14
10 min, 30 mg/kg, oral, F344	11.9	14
10 min, 100 mg/kg, oral, Harlan Sprague Dawley	26.2	44.1
10 min, 400 mg/kg, oral, F344	140	235
10 min, 400 mg/kg, oral, Harlan Sprague Dawley	208	–
12 h, 100 mg/kg, oral, Harlan Sprague Dawley	0.0058	–
12 h, 400 mg/kg, oral, F344	8.61	1.3
12 h, 400 mg/kg, oral, Harlan Sprague Dawley	13.3	–
20 min, 10 mg/kg, iv, F344	5.16	6.73
20 min, 10 mg/kg, oral, F344	3.32	6.2
20 min, 30 mg/kg, oral, F344	21.1	15.9
20 min, 100 mg/kg, oral, Harlan Sprague Dawley	45.6	51.1
20 min, 400 mg/kg, oral, F344	164	157
20 min, 400 mg/kg, oral, Harlan Sprague Dawley	166	–
